Measurements taken from the supplement of paper PMC4967469.
IC50 is the fitted dose that halves viability relative to control wells, and lower means more sensitive; a limit (>, <) means that the fit lies beyond the doses tested. AUC, from the same fit, is the share of area under the viability curve across the 256-fold dose range; the more sensitive the line, the further below 1. For some assays here: Any top dose called inferred is not printed in the source and was worked back from the curve model. For some assays here: Where an entry number is given, a second screen of the drug exists; the two often differ.

How the values were obtained:
Test in all cases: Viability of human cancer cell lines after 72 h of drug (GDSC screen)
PI-103 = compound: Oc1cccc(-c2nc(N3CCOCC3)c3oc4ncccc4c3n2)c1 [PI-103]; conditions: top dose 10.24 µM
Protocol: (§1)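 Human cancer cell lines in 384-well plates, medium with 10% serum, drug for 72 h over a 256-fold dose range (nine 2-fold or five 4-fold steps up to the top dose). Adherent lines were fixed and stained with the nucleic acid dye Syto60, suspension lines read with resazurin; signal relative to control wells, capped at 0 and 100%. One two-parameter sigmoid per drug and line, fitted in a mixed model over all curves with the slope shared within a line.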

SB-505124 = compound: Cc1cccc(-c2[nH]c(C(C)(C)C)nc2-c2ccc3c(c2)OCO3)n1 [SB-505124]; conditions: top dose 10 µM; top dose inferred
Protocol: as §1

UNC0638 = compound: COc1cc2c(NC3CCN(C(C)C)CC3)nc(C3CCCCC3)nc2cc1OCCCN1CCCC1 [UNC0638]
Protocol: as §1

GSK690693 = compound: CCn1c(-c2nonc2N)nc2c(C#CC(C)(C)O)ncc(OC[C@H]3CCCNC3)c21 [GSK690693]; conditions: top dose 10.24 µM; top dose inferred
Protocol: as §1

Tretinoin = compound: CC1=C(/C=C/C(C)=C/C=C/C(C)=C/C(=O)O)C(C)(C)CCC1 [Tretinoin]; conditions: top dose 10 µM; top dose inferred
Protocol: as §1

WH-4-023 = compound: COc1ccc(N(C(=O)Oc2c(C)cccc2C)c2ccnc(Nc3ccc(N4CCN(C)CC4)cc3)n2)c(OC)c1 [WH-4-023]; conditions: top dose 5.12 µM; top dose inferred
Protocol: as §1

BX-795 = compound: O=C(NCCCNc1nc(Nc2cccc(NC(=O)N3CCCC3)c2)ncc1I)c1cccs1 [BX-795]; conditions: top dose 5 µM; top dose inferred
Protocol: as §1

[1] = top dose 20 µM, screen: GDSC drug entry 1236, top dose inferred
[2] = top dose 40 µM, screen: GDSC drug entry 245

| Cell Line | AUC (PI-103) | IC50 (PI-103) [µM] | AUC (SB-505124) | IC50 (SB-505124) [µM] | AUC (UNC0638; [1]) | IC50 (UNC0638; [1]) [µM] | AUC (UNC0638; [2]) | IC50 (UNC0638; [2]) [µM] | AUC (GSK690693) | IC50 (GSK690693) [µM] | AUC (Tretinoin) | IC50 (Tretinoin) [µM] | AUC (WH-4-023) | IC50 (WH-4-023) [µM] | AUC (BX-795) | IC50 (BX-795) [µM] |
| --- | --- | --- | --- | --- | --- | --- | --- | --- | --- | --- | --- | --- | --- | --- | --- | --- |
| U-698-M (B-cell leukaemia, suspension) | 0.708 | 2.46 | 0.894 | > 10 | 0.8 | 9.71 | 0.741 | 12.3 | 0.985 | > 10.2 | 0.981 | > 10 | 0.968 | > 5.12 | 0.921 | > 5 |
| UACC-257 (melanoma, adherent) | 0.673 | 2.19 | 0.871 | > 10 | 0.791 | 11.5 | 0.6 | 5.03 | 0.974 | > 10.2 | 0.947 | > 10 | 0.973 | > 5.12 | 0.943 | > 5 |
| VA-ES-BJ (soft tissue, adherent) | 0.645 | 1.66 | 0.593 | 1.14 | 0.975 | > 20 | 0.922 | > 40 | 0.986 | > 10.2 | 0.98 | > 10 | 0.55 | 0.44 | 0.689 | 1.09 |
| VCaP (prostate, adherent) | 0.321 | 0.199 | 0.986 | > 10 | 0.848 | 15.8 | 0.722 | 10.9 | 0.706 | 2.5 | 0.959 | > 10 | 0.977 | > 5.12 | 0.919 | > 5 |
| WIL2-NS (lymphoid neoplasm, suspension) | 0.188 | 0.0963 | 0.991 | > 10 | 0.809 | 8.15 | 0.632 | 5.36 | 0.707 | 2.15 | 0.99 | > 10 | 0.951 | > 5.12 | 0.992 | > 5 |
| WSU-NHL (lymphoid neoplasm, suspension) | 0.723 | 2.49 | 0.979 | > 10 | 0.818 | 9.59 | 0.726 | 10 | 0.989 | > 10.2 | 0.975 | > 10 | 0.988 | > 5.12 | 0.827 | 2.58 |
| YT (lymphoid neoplasm, suspension) | 0.072 | < 0.04 | 0.991 | > 10 | 0.991 | > 20 | 0.74 | 10.6 | 0.929 | > 10.2 | 0.955 | > 10 | 0.992 | > 5.12 | 0.693 | 0.987 |
| no-11 (glioma, adherent) | 0.525 | 0.764 | 0.98 | > 10 | 0.981 | > 20 | 0.806 | 26.9 | 0.964 | > 10.2 | 0.982 | > 10 | 0.856 | > 5.12 | 0.876 | > 5 |
